# Results: PubChem BioAssay (NCI)
# Where “and” joins values, the source holds several entries; their conditions need not be identical. Identical values can stand only once.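 Tested at 5 concentrations; 48 h exposure; 96-well plates; endpoints linearly interpolated, else capped at highest concentration. At the GI50, growth is halved. TGI: total growth inhibition.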
# Test system: NCI-H322M lung
# Experiment: DTP human tumour cell line panel, 48 h
Structure (SMILES),TGI,GI50
CSC(C1c2ccccc2N(C)C2=NC(=O)N(C)C(=O)C21Cl)S(=O)(=O)c1ccc(C)cc1 (stereo not given),> 100 µM,
CN1CN(c2ccccc2)C2(CCN(CCCSc3ccccc3NC(=O)/C=C/c3ccccc3)CC2)C1=O,> 100 µM,
NCCCNc1nc2ccccc2c2c(=O)c3cc(C(F)(F)F)ccc3sc12,2.96 µM,1.61 µM
CC(C)(C)c1ccc(-c2nc3ccc([N+](=O)[O-])cc3c(=O)o2)cc1,> 100 µM,
CC(C)NC(=O)CN1CCN(C2=CC(=O)c3c(O)ccc(O)c3C2=O)CC1,31.5 µM,
Cc1ccc(NC(=O)NC(=O)c2ccc([N+](=O)[O-])cc2[N+](=O)[O-])cc1Oc1ncc(Cl)cn1,23.8 µM,
CC(=O)c1c(C(F)(F)F)n([O-])c2ccc(Cl)cc2[n+]1=O,30.5 µM,11.9 µM
CC1/C=C/C=C/C=C/C=C/C=C/C=C/C=C/C(O[C@@H]2O[C@H](C)[C@H](O)[C@@H](O)[C@@H]2N)CC(O)C(C(=O)O)C(O)CC(=O)CC(O)CC(O)CC(O)CC(=O)CCCC(=O)CC(=O)OC1C(C)CC(C)C(O)CC(=O)c1ccc(N)cc1 (stereo not given in full),0.112 µM and 0.663 µM,0.0568 µM and 0.233 µM
COCC1OC(OC2C3=C(C(C)C)CCC3(C)/C=C3\C(CCC3(O)COC)C(C)C2O)C(O)C2OC3OC12OC3(C)C1CO1 (stereo not given),> 100 µM,
COc1cccc(NC(=S)Nn2c(C)nc3ccccc3c2=O)c1,> 100 µM,
Cc1ccc(S(=O)(=O)NN=C2CCCCCCCCCCC2)cc1,> 100 µM,
CC(=O)C1CC=C(C)CC1 (stereo not given),> 100 µM,
O=C1Nc2cccc(Cl)c2/C1=C\c1c(Cl)nc2sccn12,> 100 µM,
NC(=O)C1=NNc2ccccc2C(=O)N1c1ccccc1,> 100 µM,
COc1ccccc1-n1c(-c2cc(O)ccc2C)cn2c3c(=O)[nH]c(=O)n(C)c3nc12,> 100 µM,4.82 µM
CC(OC(=O)NCn1cc(-c2ccccc2)nn1)c1ccccc1 (stereo not given),> 100 µM,
O=C(/C=C/c1ccc(Cl)cc1)Oc1ccc(/C=C2\CCCCC2=O)cc1,> 100 µM,
CCCC/C=C/C1Cc2ccccc2CN1S(=O)(=O)c1ccc(C)cc1 (stereo not given),> 100 µM,
CC1OC(OC2C(O[C@H]3CC[C@@]4(C)[C@@H](CC[C@@H]5[C@@H]4CC[C@]4(C)[C@@H]6[C@H](C[C@@H]54)O[C@]4(CC[C@@H](C)CO4)[C@H]6C)C3)OC(CO)C(OC3OC(CO)C(O)C(OC4OCC(O)C(O)C4O)C3OC3OCC(O)C(O)C3O)C2O)C(O)C(O)C1O (stereo not given in full),2.56 µM,
Cc1cccc2c1Oc1cc(Cl)ccc1C2NC(=O)CCN1CCN(CCO)CC1 (stereo not given),32 µM,
CCCc1c(OC)c(=O)c2c(OC)cc(OC)c3c4c(OC)cc(OC)c5c(=O)c(OC)c(CCC)c(c1c23)c54,28.3 µM,
COc1ccc(N2C(=O)C3ON(C(C(N)=O)c4ccccc4)C(c4ccc(-c5ccccc5)cc4)C3C2=O)cc1 (stereo not given),> 50 µM,
CCC1=CC2CN3CCc4c([nH]c5ccccc45)C(C(=O)OC)(C2)C13 (stereo not given),92.3 µM,

Structure (SMILES),TGI,GI50
CCOC(=O)c1sc2nc3sc(N=Nc4ccc(Cl)cc4)c(O)n3c(=S)c2c1C,54.2 µM,17.6 µM
C=C(C)[C@@H]1CC[C@]2(C)[C@H](C(=O)C=C3[C@@H]4C[C@](C)(C(=O)N5CCN(C)CC5)CC[C@]4(C)CC[C@]32C)[C@@]1(C)CCC#N,15.6 µM,8.67 µM
CCOC(=O)N1CCc2cc(OC)c(OC)c3c2C1CC3=O (stereo not given),> 100 µM,
CCCCCCCC/C=C/CCCCCCCC1=NCC[N+]1(CCO)CCO,22.9 µM,9.05 µM
CC1=C2c3c(C)ccc4ccc(C)c(c34)C2(O)C(C)C1=O (stereo not given),> 100 µM,
Cc1ccc(-c2nc(SCC(=O)O)n[nH]2)cc1,> 100 µM,
O=C1CN2Cc3cc(N4CCOCC4)ccc3N=C2N1,> 100 µM,
COc1ccc2oc3c4c2c1CCC4CCC3=O (stereo not given),> 100 µM,
NS(=O)(=O)c1cc2c(cc1Cl)NC(Cc1ccccc1)NS2(=O)=O (stereo not given),> 100 µM,
CCOC(=O)C(=O)Nc1c(F)cc(F)cc1Br,> 100 µM,
OC12COc3ccccc3C1Oc1ccccc1C2 (stereo not given),> 100 µM,
CCCCC(=O)Nc1ccc2cc(C(=O)OC)c(ON3C(=O)c4ccccc4C3=O)nc2n1,77.6 µM,
CCCN(CCCC(NC(C)=O)C(=O)NCc1ccccc1)C(=O)NC (stereo not given),> 100 µM,
C[C@]12CCC[C@H](Cl)C1(O)C[C@H](C(=O)O)CC2 (stereo not given in full),> 100 µM,
O=C(O)C1C(C(=O)Nc2ccc3c(c2)Cc2ccccc2-3)C2(Cl)C(Cl)=C(Cl)C1(Cl)C2(Cl)Cl (stereo not given),> 100 µM,
CCCCc1c2c(nc3c1CCCC3O)/C(=C/c1ccccc1)CCC2 (stereo not given),> 100 µM,
CC(C)c1ccccc1NC(=O)C(=O)Cc1nc2ccccc2s1,> 100 µM,
NC(=O)N1N=C2c3ccccc3CC[C@@H]2C1c1ccccc1 (stereo not given in full),> 100 µM,
CCOc1ccc([C@@H]2[C@@H](Oc3ccccc3)C(=O)N2c2cc(OC)c(OC)c(OC)c2)cc1,> 100 µM,0.831 µM
NC(CSC(c1ccccc1)(c1ccccc1)c1ccc(Cl)cc1)C(=O)O (stereo not given),> 79.9 µM,0.338 µM
CCCCC(C)C1CCC2(C)C=CC(=O)C(C)=C2C1O (stereo not given),> 100 µM,
CCCn1c(SCC)c2ccccc2c1-c1nc(F)nc(F)n1,> 100 µM,
Cc1c(CCOC=O)c(=O)[nH]c2nncn12,> 100 µM,

Structure (SMILES),TGI,GI50
O=c1[nH]c(Nc2cccc(C(F)(F)F)c2)nc2nc[nH]c12,> 100 µM,
N#Cc1c(-c2ccc([N+](=O)[O-])cc2)cc(-c2ccc(Nc3ccnc4cc(C(F)(F)F)ccc34)cc2)nc1N,> 66.7 µM,
COc1cccc(C2C(C#N)=C(N)Oc3cc(N)ccc32)c1 (stereo not given),> 100 µM,1.94 µM
CC(C)C1(C)N=C(C(F)(F)F)c2cc(C(=O)C(F)(F)F)c3ccccc3c2N1 (stereo not given),18.7 µM,
Cc1cn(C2CCC(/C=N\O)O2)c(=O)[nH]c1=O (stereo not given),> 100 µM,
Cc1ccc(C2NC(=S)NC3=C2CCOc2c3ccc3ccccc23)cc1 (stereo not given),> 100 µM,> 100 µM
CN1C2(c3ccccc3)c3c(-c4ccccc4)sc(-c4ccccc4)c3C1(c1ccccc1)C1C(=O)N(c3ccccc3)C(=O)C12 (stereo not given),> 100 µM,
COc1cc(-c2oc3c(OC)c(O)c(OC)c(O)c3c(=O)c2OC)cc(O)c1OC,> 100 µM,
CC(C)(C)NN=C1C(C)(C)C(=NNC(C)(C)C)C1(C)C,> 100 µM,
N#CCCN(CCC#N)c1ccc(C(N=Nc2ccccc2)=Nc2ccccc2)cc1,> 100 µM,
CC(=O)OC1CC(n2cc(F)c(=O)[nH]c2=O)OC1CO (stereo not given),> 100 µM,
O=C1C(Br)=CC2(C=C1Br)CCN=c1c2c(O)c2nc3ccccc3c3ccnc1c23,16.7 µM,9.02 µM
CC(=O)N1CC(Nc2ccc(OC(F)(F)F)cc2)=CC1=O,> 100 µM,> 100 µM
COc1ccc(N=C(C)c2ccncc2)cc1,> 100 µM,
COc1cc2c(c(C)c1O)[C@H]1COc3ccccc3[C@H]1O2,> 100 µM,
OCCCN=NNc1ccc(-c2nc3ccccc3[nH]2)cc1,45.9 µM,15.5 µM
O=C(CO)CC(=O)C(=O)Nc1nc([N+](=O)[O-])cs1,> 100 µM,
CC(=O)c1ccc(NC(=O)CSc2nnc(-c3cc(-c4ccc(C)cc4)nc4ccccc34)o2)cc1,> 100 µM,> 100 µM
N/N=C1\C(=O)N(C2CCCCC2)C(=O)C1C(=O)NC1CCCCC1 (stereo not given),> 100 µM,
CCCc1cc(=O)oc2c3c(c4c(c12)OC(C)(C)C=C4)O[C@@H](C)[C@H](C)C3=O,30.9 µM,
O=C(O)C1CCCN1Cc1cc2ccccc2c2ccccc12 (stereo not given),> 100 µM,
CCCCCC(O)C1C(=O)OC(C)C(O)/C=C/C=C/C=C/C=C\C=C(\C)C(O)CC(O)CC(O)CC(O)CC(O)CC(O)CC1O (stereo not given),> 100 µM,> 100 µM
CCOC(=O)c1csc(NC(=O)CCN2CCCCC2)n1,> 100 µM,
